Experimental data published in the supplement of paper PMC11417369.
± gives the standard deviation of the averaged measurements. Some of the results follow.

Test system: PfAP2-LT AP2 domain (GST-tagged)
Experiment: gcPBM binding intensity (ln(normalized median fluorescence intensity)); higher = stronger DNA binding
Summary of the method: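 For binding intensity, the highest Masliner-normalised natural-log median intensity across replicate spots of either probe orientation was taken. Protein bound to the array was stained with Alexa488 anti-GST antibody and scanned at 488 nm. The protein, GST-tagged P. falciparum DNA-binding domains from E. coli at about 25 μg on average, had been applied for 1 h to an Agilent 4 × 180k array of primer-extended double-stranded 36-bp intergenic genomic probes and negative controls.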

Row | Sequence | gcPBM binding intensity (ln)
1 | CGCAATTAAAATATGTGTCCTCATTTTATAACATTT [XGTACX_site5340] | 8.67 ± 0.47
2 | AAATTTATGTGTGCCTGTACATATCAAAGATTTAAG [XGTACX_site8547] | 8.9 ± 0.24
3 | TAATTTCTTAGGTATTGTACAAATATTATATGATAT [XGTACX_site256] | 8.64 ± 0.48
4 | ATATATCTATAAAAGGCTTCCCACTTTTTTTGTCAA [TGCATGCA_negctrl_site332] | 8.56 ± 0.49
5 | ATAATAAAAAAAATTAGTACATATATAAATATAAAT [XGTACX_site1937] | 8.64 ± 0.58
6 | AGTACATTTTTGTGTGTGCACTAATATTATATACTT [GTGCAC_site9568] | 9.37 ± 0.43
7 | GACATAGTCATATACTGTACTTTATATTATTGTGTA [XGTACX_site6636] | 8.8 ± 0.38
8 | TTTTTTTTCATTGGTTGTACAATATTTATAATTCAC [XGTACX_site7036] | 8.82 ± 0.54
9 | TACAGATATAAACACACACACATATATATATATATA [CACACA_site4846] | 10.05 ± 0.092
10 | TTTTTTTTTTTTTTTTGTACTTATAAAAAATTTTTT [XGTACX_site1249] | 8.21 ± 0.57
11 | AATCCCCACTTGTCAAGTACATATATCATGGATGAA [XGTACX_site3486] | 8.82 ± 0.28
12 | GCCAAAATCTAATTTACACACTTATTAAATAATTAC [CACACA_site6251] | 8.69 ± 0.4
13 | TATTTATAACAAAGGTTAAATTAAAACTAATCCACA [TGCATGCA_negctrl_site3] | 8.4 ± 0.3
14 | TATATTAAAAAAGAGGTGCATTCGTAAGAGGTTAAA [GTGCAC_site9720] | 8.73 ± 0.46
15 | TTTGTTAATATAAAAACACACAAAAATAACATAAAA [CACACA_site2619] | 8.73 ± 0.42
16 | ATGTAATATTTACAACGTACAAATTATAAACATATT [XGTACX_site603] | 8.88 ± 0.35
17 | TCATATTGGCTGTTCTGTACTTATAAGTTTTAAAGA [XGTACX_site5593] | 8.68 ± 0.35
18 | AAAAAATTCATATATACACACACGCACATATATATA [CACACA_site4226] | 9.53 ± 0.13
19 | GAATATATAAGATACACACACAAATTAAATATAAAA [CACACA_site2781] | 9.31 ± 0.3
20 | AAAATATTTCATATATGTACTTAAAAAAAAAAAAAA [XGTACX_site5399] | 8.34 ± 0.43
21 | TATTATATATATGTTGACATATTTGTACACTCCACT [TGCATGCA_negctrl_site200] | 9.08 ± 0.45
22 | AAAAAAAAAAAAAACACACACACACGCATAAATATA [CACACA_site6217] | 9.95 ± 0.28

Row | Sequence | gcPBM binding intensity (ln)
23 | CACTTTTCTGGAAAAATTCCCACATTTTTTTATTAA [GTGCAC_negctrl_site322] | 8.42 ± 0.47
24 | GTACAAAAAAAAATAAAATACATATATATATATATA [GTGCAC_negctrl_site364] | 9.56 ± 0.14
25 | AAAAAAAAGTTGTATTGTACAAAAAAAAAAAAAAAA [XGTACX_site8334] | 8.62 ± 0.62
26 | TCATAAAAACTAATACGTACTTAAAAATATGAACTT [XGTACX_site2939] | 8.67 ± 0.42
27 | TCTTCATATAAGAACACATGCAGATTTTTATTATTG [TGCATGCA_site682] | 8.64 ± 0.4
28 | GATAAAGTACTTTATACACACAAATATTTATTTATA [CACACA_site7795] | 8.93 ± 0.45
29 | TTATGTAAAAAAAAAAAAAAAAAAAAAAAAAAAAAA [CACACA_negctrl_site984] | 8.07 ± 0.23
30 | CATATAATATAATTATGTACATATATAATAATATAC [XGTACX_site5278] | 8.77 ± 0.42
31 | AAAAAAAAAAAAAAACGTACACATATTATGTTATTT [XGTACX_site5264] | 8.97 ± 0.31
32 | TATGTTCATCATAGCACACATATATAAATTACAACA [CACACA_site3533] | 8.91 ± 0.36
33 | ATTTGGCATAGACACACACACACACGCACGCACATA [CACACA_site6424] | 10.3 ± 0.28
34 | CAAAAATAAACTATAGTACACACTTATTATTATGAA [CACACA_site2702] | 8.8 ± 0.49
35 | TTTTTATGTAGAATTTTTTTATTTTTTCAAAATGGA [CACACA_negctrl_site166] | 7.98 ± 0.44
36 | ATTGTAATCATATGAAGTACTAATATATATTTTAAT [XGTACX_site8350] | 8.69 ± 0.36
37 | ATTTATAAAATTAATAGTACATATATTTATATATAT [XGTACX_site4173] | 8.57 ± 0.4
38 | TATTGCACAAAATAATTTTATTATACTTTATGTTAG [TGCATGCA_negctrl_site574] | 8.52 ± 0.57
39 | TTTTAAATAAAATATTGTACATTAAAATTGTAATAT [XGTACX_site2128] | 8.22 ± 0.38
40 | ATTATAAATATGTATATACACACTTTTAATATTCAT [CACACA_site9367] | 8.96 ± 0.36
41 | TAAGATAAATGATAAAGTACTTTTTTTTTTTAAATA [XGTACX_site2326] | 8.21 ± 0.51
42 | AAGCAAACATATTAATGTACACACACCCACACACAA [XGTACX_site5806] | 9.95 ± 0.46
43 | AATTTTAAAAATATAACACACATATATAAAATATAT [CACACA_site3610] | 8.74 ± 0.42
44 | AATGAAGAAAAAAAAAGTACATTATTTTTAAAACTT [XGTACX_site563] | 8.54 ± 0.38
